{
  "source": "the antibiotic and cytotoxicity screens of Wong et al. (2023)",
  "key": {"[1]": {"system": "HSkMC (human skeletal muscle cells)", "experiment": "cytotoxicity call (relative viability < 0.9)", "conditions": "10 µM"}, "[2]": {"system": "HepG2", "experiment": "cytotoxicity call (relative viability < 0.9)", "conditions": "10 µM"}, "[3]": {"system": "S. aureus RN4220", "experiment": "growth inhibition call (relative growth <= 0.2)", "conditions": "50 µM"}},
  "note": "The other results are listed elsewhere or left out.",
  "data": [
    {"smiles": "O=C(N[C@@H]1C=C[C@H](CC(=O)N2CCOCC2)O[C@H]1CO)c1ccccn1", "values": [
      {"measurement": "cytotoxicity call", "setting": "[1]", "result": "inactive"},
      {"measurement": "cytotoxicity call", "setting": "[2]", "result": "inactive"},
      {"measurement": "growth inhibition call", "setting": "[3]", "result": "inactive"}
    ]},
    {"smiles": "C[C@@H]1CN([C@H](C)CO)C(=O)Cc2cc(NC(=O)Cc3cn(C)c4ccccc34)ccc2O[C@@H]1CN(C)Cc1ccc(C(F)(F)F)cc1", "values": [
      {"measurement": "cytotoxicity call", "setting": "[1]", "result": "inactive"},
      {"measurement": "cytotoxicity call", "setting": "[2]", "result": "active"},
      {"measurement": "growth inhibition call", "setting": "[3]", "result": "inactive"}
    ]},
    {"smiles": "O=C(C[C@H]1CC[C@H]2[C@@H](COC[C@@H](O)CN2S(=O)(=O)c2cccc(Cl)c2)O1)NCc1ccc2c(c1)OCO2", "values": [
      {"measurement": "cytotoxicity call", "setting": "[1]", "result": "inactive"},
      {"measurement": "cytotoxicity call", "setting": "[2]", "result": "inactive"},
      {"measurement": "growth inhibition call", "setting": "[3]", "result": "inactive"}
    ]},
    {"smiles": "CN(C)C(=O)C[C@H]1CC[C@@H]2[C@H](COC[C@@H](O)CN2S(=O)(=O)c2ccccc2)O1", "values": [
      {"measurement": "cytotoxicity call", "setting": "[1]", "result": "inactive"},
      {"measurement": "cytotoxicity call", "setting": "[2]", "result": "inactive"},
      {"measurement": "growth inhibition call", "setting": "[3]", "result": "inactive"}
    ]},
    {"smiles": "CN1CCC[C@]2(CCN(C(=O)CCn3ccc(=O)[nH]c3=O)C2)C1=O", "values": [
      {"measurement": "cytotoxicity call", "setting": "[1]", "result": "inactive"},
      {"measurement": "cytotoxicity call", "setting": "[2]", "result": "inactive"},
      {"measurement": "growth inhibition call", "setting": "[3]", "result": "inactive"}
    ]},
    {"smiles": "C[C@H](CO)N1C[C@H](C)[C@@H](CN(C)C(=O)C2CCCCC2)OCCCC[C@H](C)Oc2ccc(NC(=O)NC3CCCCC3)cc2C1=O", "values": [
      {"measurement": "cytotoxicity call", "setting": "[1]", "result": "inactive"},
      {"measurement": "cytotoxicity call", "setting": "[2]", "result": "inactive"},
      {"measurement": "growth inhibition call", "setting": "[3]", "result": "inactive"}
    ]},
    {"smiles": "C[C@H](CO)N1C[C@H](C)[C@H](CN(C)Cc2ccc(C(F)(F)F)cc2)OCCCC[C@H](C)Oc2ccc(NC(=O)CCC(F)(F)F)cc2C1=O", "values": [
      {"measurement": "cytotoxicity call", "setting": "[1]", "result": "inactive"},
      {"measurement": "cytotoxicity call", "setting": "[2]", "result": "inactive"},
      {"measurement": "growth inhibition call", "setting": "[3]", "result": "inactive"}
    ]},
    {"smiles": "Cn1cnc(S(=O)(=O)N2C[C@@H](O)COC[C@@H]3O[C@@H](CC(=O)NC4Cc5ccccc5C4)CC[C@H]32)c1", "values": [
      {"measurement": "cytotoxicity call", "setting": "[1]", "result": "inactive"},
      {"measurement": "cytotoxicity call", "setting": "[2]", "result": "inactive"},
      {"measurement": "growth inhibition call", "setting": "[3]", "result": "inactive"}
    ]},
    {"smiles": "Cc1noc(C)c1NC(=O)N(C)C[C@@H]1Oc2c(NS(C)(=O)=O)cccc2C(=O)N([C@@H](C)CO)C[C@H]1C", "values": [
      {"measurement": "cytotoxicity call", "setting": "[1]", "result": "inactive"},
      {"measurement": "cytotoxicity call", "setting": "[2]", "result": "inactive"},
      {"measurement": "growth inhibition call", "setting": "[3]", "result": "inactive"}
    ]}
  ]
}
